# Reference: the supplement of paper PMC8728848
# The other results are listed elsewhere or left out.
# Tests used:
# Test in all cases: glycan array binding signal (z-score within array); higher = stronger binding
# Conditions in all cases: glycan notation: IUPAC condensed, linker removed
# [1] = biological target: Gal(a1-3)[Gal(a1-4)]Gal(b1-4)GlcNAc
# Summary of the method: (§1)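 Glycan array data came from 3228 arrays in the Consortium for Functional Glycomics database, and only arrays with an available protein sequence were kept. Glycan names were put into IUPAC-condensed notation, and columns mapping to the same glycan were averaged. The binding signal is a within-array Z-score, averaged across arrays of one protein sequence run at different concentrations or buffers and across linkers. A negative Z-score can be read as non-binding.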
# [2] = biological target: Gal(a1-4)Gal(b1-3)GlcNAc(b1-2)Man(a1-3)[Gal(a1-4)Gal(b1-3)GlcNAc(b1-2)Man(a1-6)]Man(b1-4)GlcNAc(b1-4)GlcNAc
# Summary of the method: as §1
# [3] = biological target: Gal(a1-4)Gal(b1-4)Glc
# Summary of the method: as §1
# [4] = biological target: Gal(a1-4)Gal(b1-4)GlcNAc
# Summary of the method: as §1
# [5] = biological target: Gal(a1-4)Gal(b1-4)GlcNAc(b1-2)Man(a1-3)[Gal(a1-4)Gal(b1-4)GlcNAc(b1-2)Man(a1-6)]Man(b1-4)GlcNAc(b1-4)GlcNAc
# Summary of the method: as §1
# [6] = biological target: Gal(a1-4)Gal(b1-4)GlcNAc(b1-3)Gal(b1-4)Glc
# Summary of the method: as §1
# [7] = biological target: Gal(a1-4)GlcNAc
# Summary of the method: as §1
# [8] = biological target: Gal(a1-6)Glc
# Summary of the method: as §1
# [9] = biological target: Gal(b1-2)Gal
# Summary of the method: as §1
# [10] = biological target: Gal(b1-3)Gal
# Summary of the method: as §1
# [11] = biological target: Gal(b1-3)Gal(b1-4)GlcNAc
# Summary of the method: as §1
# [12] = biological target: Gal(b1-3)Gal(b1-4)GlcNAc(b1-2)Man(a1-3)[Gal(b1-3)Gal(b1-4)GlcNAc(b1-2)Man(a1-6)]Man(b1-4)GlcNAc(b1-4)GlcNAc
# Summary of the method: as §1
# [13] = biological target: Gal(b1-3)GalNAc
# Summary of the method: as §1
# [14] = biological target: Gal(b1-3)GalNAc(a1-3)[Fuc(a1-2)]Gal(b1-4)Glc
# Summary of the method: as §1
# [15] = biological target: Gal(b1-3)GalNAc(a1-3)[Fuc(a1-2)]Gal(b1-4)GlcNAc
# Summary of the method: as §1
# [16] = biological target: Gal(b1-3)GalNAc(b1-3)Gal(a1-4)Gal(b1-4)Glc
# Summary of the method: as §1
# [17] = biological target: Gal(b1-3)GalNAc(b1-4)Gal(b1-4)Glc
# Summary of the method: as §1
# [18] = biological target: Gal(b1-3)GalNAc(b1-4)[Neu5Ac(a2-3)]Gal(b1-4)Glc
# Summary of the method: as §1
# [19] = biological target: Gal(b1-3)GlcNAc
# Summary of the method: as §1
# [20] = biological target: Gal(b1-3)GlcNAc(a1-3)Gal(b1-4)GlcNAc
# Summary of the method: as §1
# [21] = biological target: Gal(b1-3)GlcNAc(a1-6)Gal(b1-4)GlcNAc
# Summary of the method: as §1
# [22] = biological target: Gal(b1-3)GlcNAc(b1-2)Man(a1-3)[Gal(b1-3)GlcNAc(b1-2)Man(a1-6)]Man(b1-4)GlcNAc(b1-4)GlcNAc
# Summary of the method: as §1
# [23] = biological target: Gal(b1-3)GlcNAc(b1-2)Man(a1-3)[Gal(b1-3)GlcNAc(b1-2)Man(a1-6)]Man(b1-4)GlcNAc(b1-4)[Fuc(a1-6)]GlcNAc
# Summary of the method: as §1
# [24] = biological target: Gal(b1-3)GlcNAc(b1-2)Man(a1-3)[GlcNAc(b1-4)][Gal(b1-3)GlcNAc(b1-2)Man(a1-6)]Man(b1-4)GlcNAc(b1-4)GlcNAc
# Summary of the method: as §1
# [25] = biological target: Gal(b1-3)GlcNAc(b1-2)[Gal(b1-3)GlcNAc(b1-6)]Man(a1-6)[Gal(b1-3)GlcNAc(b1-2)Man(a1-3)]Man(b1-4)GlcNAc(b1-4)GlcNAc
# Summary of the method: as §1
# [26] = biological target: Gal(b1-3)GlcNAc(b1-3)Gal(b1-3)GlcNAc
# Summary of the method: as §1
# [27] = biological target: Gal(b1-3)GlcNAc(b1-3)Gal(b1-4)Glc
# Summary of the method: as §1
# [28] = biological target: Gal(b1-3)GlcNAc(b1-3)Gal(b1-4)GlcNAc
# Summary of the method: as §1
# [29] = biological target: Gal(b1-3)GlcNAc(b1-3)Gal(b1-4)GlcNAc(b1-6)[Gal(b1-3)GlcNAc(b1-3)]Gal(b1-4)Glc
# Summary of the method: as §1
# [30] = biological target: Gal(b1-3)GlcNAc(b1-3)Gal(b1-4)[Fuc(a1-3)]GlcNAc(b1-6)[Gal(b1-3)GlcNAc(b1-3)]Gal(b1-4)Glc
# Summary of the method: as §1
binder,measurement,setting,value
"StcE (Escherichia coli), O82882.2 (protein) ADNNSAIYFNTSQPINDLQGSLAAEVKFAQSQILPAHPKEGDSQPHLTSLRKSLLLVRPVKADDKTPVQVEARDDNNKILGTLTLYPPSSLPDTIYHLDGVPEGGIDFTPHNGTKKIINTVAEVNKLSDASGSSIHSHLTNNALVEIHTANGRWVRDIYLPQGPDLEGKMVRFVSSAGYSSTVFYGDRKVTLSVGNTLLFKYVNGQWFRSGELENNRITYAQHIWSAELPAHWIVPGLNLVIKQGNLSGRLNDIKIGAPGELLLHTIDIGMLTTPRDRFDFAKDKEAHREYFQTIPVSRMIVNNYAPLHLKEVMLPTGELLTDMDPGNGGWHSGTMRQRIGKELVSHGIDNANYGLNSTAGLGENSHPYVVAQLAAHNSRGNYANGIQVHGGSGGGGIVTLDSTLGNEFSHEVGHNYGLGHYVDGFKGSVHRSAENNNSTWGWDGDKKRFIPNFYPSQTNEKSCLNNQCQEPFDGHKFGFDAMAGGSPFSAANRFTMYTPNSSAIIQRFFENKAVFDSRSSTGFSKWNADTQEMEPYEHTIDRAEQITASVNELSESKMAELMAEYAVVKVHMWNGNWTRNIYIPTASADNRGSILTINHEAGYNSYLFINGDEKVVSQGYKKSFVSDGQFWKERDVVDTREARKPEQFGVPVTTLVGYYDPEGTLSSYIYPAMYGAYGFTYSDDSQNLSDNDCQLQVDTKEGQLRFRLANHRANNTVMNKFHINVPTESQPTQATLVCNNKILDTKSLTPAPEGLTYTVNGQALPAKENEGCIVSVNSGKRYCLPVGQRSGYSLPDWIVGQEVYVDSGAKAKVLLSDWDNLSYNRIGEFVGNVNPADMKKVKAWNGQYLDFSKPRSMRVVYK",glycan array binding signal (z-score),[1],-0.042
same,glycan array binding signal (z-score),[2],-0.156
same,glycan array binding signal (z-score),[3],-0.39
same,glycan array binding signal (z-score),[4],-0.215
same,glycan array binding signal (z-score),[5],-0.125
same,glycan array binding signal (z-score),[6],-0.159
same,glycan array binding signal (z-score),[7],-0.285
same,glycan array binding signal (z-score),[8],-0.394
same,glycan array binding signal (z-score),[9],0.601
same,glycan array binding signal (z-score),[10],0.264
same,glycan array binding signal (z-score),[11],-0.172
same,glycan array binding signal (z-score),[12],-0.137
same,glycan array binding signal (z-score),[13],-0.045
same,glycan array binding signal (z-score),[14],-0.121
same,glycan array binding signal (z-score),[15],-0.17
same,glycan array binding signal (z-score),[16],-0.145
same,glycan array binding signal (z-score),[17],-0.65
same,glycan array binding signal (z-score),[18],-0.25
same,glycan array binding signal (z-score),[19],0.058
same,glycan array binding signal (z-score),[20],-0.109
same,glycan array binding signal (z-score),[21],-0.162
same,glycan array binding signal (z-score),[22],-0.154
same,glycan array binding signal (z-score),[23],-0.106
same,glycan array binding signal (z-score),[24],0.01
same,glycan array binding signal (z-score),[25],-0.071
same,glycan array binding signal (z-score),[26],-0.142
same,glycan array binding signal (z-score),[27],-0.002
same,glycan array binding signal (z-score),[28],-0.148
same,glycan array binding signal (z-score),[29],-0.126
same,glycan array binding signal (z-score),[30],-0.137
